# Measured values taken from the supplement of paper PMC3334620.
# The full ranking holds about 33,000 sequences; the median of “E-score (-0.5 to 0.5)” is about -0.035, and the highest 2% start at about 0.34. This is one part of the list.
# Biological target: T1, Mot3 (UniProt P54785)
# T1 sequence: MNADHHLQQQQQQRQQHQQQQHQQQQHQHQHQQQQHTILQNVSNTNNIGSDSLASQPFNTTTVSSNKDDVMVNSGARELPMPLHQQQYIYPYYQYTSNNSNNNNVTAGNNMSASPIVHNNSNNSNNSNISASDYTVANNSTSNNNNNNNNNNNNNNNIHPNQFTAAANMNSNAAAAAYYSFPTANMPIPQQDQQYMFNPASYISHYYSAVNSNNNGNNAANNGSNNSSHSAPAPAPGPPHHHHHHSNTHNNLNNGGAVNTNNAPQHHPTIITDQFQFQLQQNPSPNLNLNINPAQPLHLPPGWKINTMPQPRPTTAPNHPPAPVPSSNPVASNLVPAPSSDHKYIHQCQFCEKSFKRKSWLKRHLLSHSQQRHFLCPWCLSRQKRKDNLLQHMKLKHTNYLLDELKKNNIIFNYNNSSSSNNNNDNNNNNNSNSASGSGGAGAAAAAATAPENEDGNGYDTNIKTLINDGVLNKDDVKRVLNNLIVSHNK
# Assay: PBM E-score (8-mer binding enrichment) (E-score (-0.5 to 0.5)); higher = stronger / more preferred TF binding; most listed sequences are background and not binding sites
# Conditions: protein concentration: 200 nM; construct: GST-full length
# Summary of the method: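 Yeast transcription factors carrying a GST tag, as full-length proteins or DNA-binding domains, were produced by PURExpress in vitro transcription/translation. About 100-200 nM protein was applied to universal all-10-mer Agilent arrays, double-stranded by primer extension on fresh or once-stripped slides. Bound protein was detected with fluorescent anti-GST, and scans were normalised with masliner. The Universal PBM Analysis Suite gave each ungapped eight-base word, pooled with its reverse complement, an E-score, a modified Wilcoxon-Mann-Whitney statistic.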
row,Sequence,PBM E-score
1,AGGATTGA,0.0163
2,AGAAGGAG,-0.107
3,ATGGCCGG,-0.189
4,CCCGCTCA,-0.14
5,AACGCCAA,0.155
6,GAGTGATA,-0.0503
7,GGAACCCA,-0.107
8,CATTCCAG,-0.132
9,ATGTGGCC,-0.195
10,AGTGTGGC,-0.192
11,CTAACCGA,0.00207
12,CTCTCTGA,-0.348
13,CATTGTTA,0.15
14,ATCTTGTC,0.176
15,CGCATGGA,-0.0319
16,CATTATGG,-0.0987
17,CCTTCGCG,0.0462
18,CCGCATAA,-0.0908
19,CCAAGAAG,-0.0857
20,CGGCACTA,-0.184
21,ACTATTCG,0.14
22,CTGACATA,0.128
23,CTTTCGTC,0.0134
24,AAATCTTA,0.12
25,CGAACTAC,-0.00477

row,Sequence,PBM E-score
1,ACTATAAC,0.0802
2,CTGAGAGC,-0.108
3,AGAGGTCC,-0.298
4,AGATGCGC,-0.171
5,ACAGTAGC,0.0188
6,GATTGCAA,0.00955
7,CGATTCGC,-0.0243
8,ACGTAGAC,0.0612
9,GCCGACGA,-0.172
10,CGTAAAGC,0.211
11,TAATATCA,0.128
12,GACGAGAA,-0.0524
13,GGCGCACA,-0.208
14,AGAAAAGC,-0.171
15,CCCGGTAG,-0.161
16,TTGGGAAA,-0.028
17,CTCATCCA,-0.127
18,ATCTTACA,0.219
19,TACTAGGA,0.101
20,CCAATCGG,-0.352
21,ACCGAGCC,-0.19
22,AGGACACT,-0.159
23,CCTAACCA,0.0213
24,GCCCAATA,0.107
25,ATTGTCAC,-0.123

row,Sequence,PBM E-score
1,AGAGACCG,-0.187
2,CCCCGCTA,-0.119
3,GGTCGTTA,0.0318
4,TCACCAGA,-0.239
5,GGGTAGCA,-0.327
6,AAAGGTCA,-0.0805
7,ATGTTGCA,0.158
8,GTGCCACA,-0.197
9,TACAATAA,0.128
10,TACCATAA,-0.114
11,AGCGACGA,-0.0963
12,GGGACGAC,-0.187
13,ACTATCCC,-0.33
14,CGGGTAAG,-0.116
15,CGTTAAAA,0.151
16,AAGAGCGC,-0.0182
17,GGAACACA,0.192
18,ACCCCCGG,-0.239
19,AAAGCGGA,0.0141
20,CATCCGAA,0.0344
21,CGGCCGTC,-0.221
22,AGGCGGCG,0.103
23,CACTGCCC,-0.121
24,CATGGAGC,0.0242
25,GCCGTATA,0.0713

row,Sequence,PBM E-score
1,CTTGGAGC,-0.276
2,GCACCTCC,-0.215
3,GTGATCAC,-0.27
4,ATGGGGAA,-0.129
5,AATCGACC,-0.241
6,AGTTCCCC,-0.283
7,AAGTAAGG,0.157
8,AAAGCATC,0.101
9,TACTCGAA,0.113
10,GGTAAACA,0.323
11,AGCTGAAC,-0.255
12,AAATCTGG,-0.124
13,AAGGGGGC,-0.138
14,AGTGAAGC,-0.161
15,CGCGGATC,-0.141
16,CGCACAGC,-0.18
17,AACGGTAT,-0.00635
18,AGGACTTA,-0.127
19,CCTGCATA,0.126
20,CCCAGTAC,-0.245
21,GCCCCTCC,-0.186
22,AATGGGTA,0.0916
23,GTGTCGCA,-0.00994
24,GGGAGACA,0.0178
25,AATGTGCC,0.275

row,Sequence,PBM E-score
1,GCGTTACC,0.0266
2,CCGCGAGC,-0.26
3,CGAGTGAC,-0.174
4,GAGTAGCC,-0.23
5,TCCTTTAA,0.249
6,CCCGCGTC,-0.0996
7,CGTAGATA,0.209
8,CCGGGCAA,-0.273
9,AGATTGCA,0.0463
10,ACTGTGGG,-0.177
11,ATATAATG,0.0479
12,ATCGTAGG,0.09
13,CACCAGTC,-0.0991
14,GCGACACA,0.0395
15,CGCTAGAG,-0.23
16,ATCATTCA,-0.0539
17,AACGGATC,0.141
18,CGATTAGC,-0.119
19,ACCCCTTA,-0.0114
20,GGAACGAA,0.157
21,GTGTAAGA,0.312
22,CTAGAGAG,-0.193
23,CTACCGTC,-0.228
24,GAGGTGTA,0.0524
25,CAAGGGTG,-0.106

row,Sequence,PBM E-score
1,CTTCAGGC,0.297
2,ACTTTGCT,-0.0166
3,CGGGTTAC,-0.108
4,GCGGATTA,-0.0721
5,GCTGCAGC,-0.254
6,TAAGGTAA,0.306
7,AATTCGGC,-0.0489
8,GCCTTTAA,0.322
9,GAGAGAGA,-0.277
10,CGTCATAC,0.0576
11,GCTTCGAA,0.0759
12,ATATGTGG,-0.0502
13,CTGCGCGA,-0.157
14,AGACAACT,0.00541
15,GAGAACCA,-0.0588
16,CCCCCACC,-0.396
17,ATACTCTC,-0.0192
18,CACGGGAA,-0.0334
19,ACCATGGT,0.0854
20,CGGTCGTC,-0.31
21,CCCCTTTA,0.0425
22,ACTCTGAG,0.0608
23,CCCAGACG,-0.154
24,GGCGGAAA,-0.129
25,CCTAGGTA,0.109

row,Sequence,PBM E-score
1,AGGCTCAG,0.24
2,CGGGAAAC,-0.0422
3,ATACCCCC,-0.268
4,ACTTCATG,-0.0568
5,CACCCGTA,-0.258
6,ATCGTCCG,0.109
7,AAATTCAT,0.117
8,ACGCGCCG,0.0455
9,AATCCATG,0.133
10,AACAGTTA,0.102
11,CCGCGAAC,-0.209
12,AGAGGAGC,-0.11
13,CCGTAACC,-0.177
14,ATTGCAGA,-0.0312
15,ATCTCTTG,-0.0945
16,CTCCCATA,-0.0967
17,GCTACGCC,-0.179
18,GAGGGAAA,-0.199
19,AGGGCACT,0.0516
20,CCTCATGC,-0.0978
21,CACCCTGG,-0.253
22,ACAGCCAC,-0.0458
